According to article PMC12162846, “Tripartite motif-containing protein 26 promotes colorectal cancer growth by inactivating p53” (Cell Death and Differentiation, 2025):

Biological target: T1, Purified TRIM26 (Flag-TRIM26 digested by PreScission Protease) (UniProt Q12899 1-539)
T1 construct: TRIM26; domain limits printed up to aa539; The legend says that Flag-TRIM26 was digested by PreScission Protease; how it was made and purified may stand in the Supplementary Information; source: purified or protein lysates containing TRIM26
T1 sequence (looked up): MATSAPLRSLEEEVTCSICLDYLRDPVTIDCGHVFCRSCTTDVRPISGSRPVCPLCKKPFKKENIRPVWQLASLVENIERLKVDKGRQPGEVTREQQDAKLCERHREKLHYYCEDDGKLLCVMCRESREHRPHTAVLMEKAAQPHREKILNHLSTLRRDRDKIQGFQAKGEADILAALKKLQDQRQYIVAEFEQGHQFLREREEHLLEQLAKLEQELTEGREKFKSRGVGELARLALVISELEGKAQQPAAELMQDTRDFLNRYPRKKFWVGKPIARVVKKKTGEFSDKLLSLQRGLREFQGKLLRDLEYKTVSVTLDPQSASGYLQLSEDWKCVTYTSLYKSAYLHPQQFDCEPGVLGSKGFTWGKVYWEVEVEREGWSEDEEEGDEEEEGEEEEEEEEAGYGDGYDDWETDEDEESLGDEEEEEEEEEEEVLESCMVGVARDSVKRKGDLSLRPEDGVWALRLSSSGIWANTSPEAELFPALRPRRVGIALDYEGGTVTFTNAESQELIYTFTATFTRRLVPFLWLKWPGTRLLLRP
Assay: pull-down; GST-p53 or GST-MDM2 and their fragments on beads, incubated with TRIM26 at RT for 40 min; bound TRIM26 detected by Western blot with TRIM26 antibody
Settings: both partners purified

- binding result: binds
B1: GST-p53 C-terminal domain ([…]) (domain or fragment)
chain: not shown
notes: also called the C-terminus of p53; source: purified GST-fusion protein on beads
